# Results as given in PubChem BioAssay AID624173 (National Center for Advancing Translational Sciences (NCATS), 2012).
# Hit rate of the full screen: of about 410,000 compounds, about 490 (0.12%) were called active. Inconclusive results, whose numbers are uncertain, are shown with a selection of clear calls. Calls come from the whole dose curve; as a rule, active = well fitted inhibition curve with a large enough effect; inconclusive = small, poorly fitted or top-dose-only effect; inactive = flat fitted curve, though single readings scatter. Potencies beside an inconclusive call are fits to weak or partial responses and may not hold up.
# Molecular target: pyruvate kinase (Trypanosoma brucei) (UniProt Q57TT1)
# Assay: qHTS of Trypanosoma Brucei Inhibitors; note: nearly all actives have a fitted effect of over 50% in size
# Conditions: TbPYK enzyme, Kinase-Glo Plus ATP luminescence, 45 min; series mostly up to 76.8 µM
# In short: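 Screened from lowest to highest concentration, compounds were pinned into TbPYK/substrate mixtures, and ADP (130 uM final) was added. Plates sat at room temperature for 45 min prior to Kinase-Glo Plus detection by luminescence.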
# Potency is the fitted concentration of half-maximal effect; tags give direction and shape of the fitted curve.
row,Compound,Potency
1,CCn1nc(NC(=O)c2ccncc2)c2cc3cc(C)ccc3nc21,"inconclusive: 25.1 µM [inhibitor, single point]"
2,COCc1cc(C)nc(SCC(=O)Nc2cc3c(cc2C#N)OCO3)c1C#N,"inconclusive: 50.1 µM [inhibitor, single point]"
3,CC1(C)CC(=O)C(C(c2ccc3c(c2)OCO3)C2C(=O)CC(C)(C)CC2=O)C(=O)C1,"inconclusive: 28.2 µM [inhibitor, single point]"
4,Cc1ccc(/C=C/C(=O)N2CCN(c3ncccn3)CC2)o1,"inconclusive: 35.5 µM [inhibitor, partial curve, poor fit]"
5,Cn1c(=O)c2[nH]c(N=NNc3ccccc3F)nc2n(C)c1=O,inactive
6,Cc1cc(NC(=O)CN2CCN(c3ccc(O)cc3)CC2)no1,"inconclusive: 39.8 µM [inhibitor, single point]"
7,O=S(=O)(NC1CC(NS(=O)(=O)OCC(Cl)(Cl)Cl)C2CCCCC12)OCC(Cl)(Cl)Cl (configuration not stated),inactive
8,CCN1/C(=C\C=C\C2=[N+](CC)c3ccccc3C2(C)C)C(C)(C)c2ccccc21,"inconclusive: 17.8 µM [inhibitor, partial curve]"
9,CC1=C(C#N)C(=O)NC(=O)/C1=C/c1ccc(-c2ccc(S(N)(=O)=O)cc2)o1,"inconclusive: 35.5 µM [inhibitor, partial curve]"
10,CCn1c(-c2ccc(C)cc2)n[nH]c1=S,"inconclusive: 14.1 µM [inhibitor, partial curve]"
11,CCOC(=O)c1c(-c2ccc(C)o2)csc1NC(=S)NC(=O)N(C)C,"inconclusive: 35.5 µM [inhibitor, partial curve, poor fit]"
12,CCCCC(CC)CNC(=O)Cc1ccc(-n2c(=O)[nH]c3ccccc3c2=O)cc1 (configuration not stated),inactive
13,CCOC(=O)c1ccc(NC(=O)CCc2ccc(CC)o2)cc1,"inconclusive: 39.8 µM [inhibitor, single point]"
14,CNC(=O)NC(=O)C(c1ccccc1)N(C)CC1COc2ccccc2O1 (configuration not stated),inactive
15,N#CC1=C(SCc2ccccc2)NC2=C(C(=O)CCC2)C1c1ccc2c(c1)OCO2 (configuration not stated),"inconclusive: 39.8 µM [inhibitor, partial curve, poor fit]"
16,O=C(CCCn1c(=S)[nH]c2ccsc2c1=O)Nc1ccc2c(c1)OCCO2,"inconclusive: 35.5 µM [inhibitor, partial curve, poor fit]"
17,O=C(Nc1cccc(S(=O)(=O)C(F)F)c1)c1ccc(Cl)c(S(=O)(=O)N2CCOCC2)c1,"inconclusive: 5.01 µM [inhibitor, full curve]"
18,Oc1ccc(N2CCN(Cc3nc4ccccc4[nH]3)CC2)cc1,"inconclusive: 31.6 µM [inhibitor, partial curve, poor fit]"
19,CC1(C)OC(=O)C(=Cc2ccc(-c3ccc(Cl)c(C(=O)O)c3)o2)C(=O)O1,active: 15.8 µM
20,CC(C)=NNc1nc(-c2ccc([N+](=O)[O-])cc2)cs1,inactive
21,Cn1c(-c2cnn(-c3ccccc3)c2-n2cccc2)n[nH]c1=S,"inconclusive: 28.2 µM [inhibitor, partial curve, poor fit]"

row,Compound,Potency
1,CCOC(=O)c1c(CC(C)C)csc1NC(=O)CCl,"inconclusive: 35.5 µM [inhibitor, single point]"
2,Cc1[nH]c2ccc(-c3n[nH]c(=S)n3Cc3ccccc3)cc2c1C,"inconclusive: 12.6 µM [inhibitor, partial curve, poor fit]"
3,Cc1sc2nc(CC(=O)NN)[nH]c(=O)c2c1C,"inconclusive: 17.8 µM [inhibitor, partial curve, poor fit]"
4,COc1ccc(Cc2n[nH]c(=S)n2C)cc1Br,"inconclusive: 39.8 µM [inhibitor, partial curve, poor fit]"
5,Cc1cccc(-c2n[nH]c(=S)n2/N=C/c2ccc(C)o2)c1,"inconclusive: 15.8 µM [inhibitor, partial curve, poor fit]"
6,CC(Nc1ccc(N2CCOCC2)cc1)C(=O)N1c2ccccc2CC1C (configuration not stated),"inconclusive: 7.94 µM [inhibitor, partial curve]"
7,COc1ccc(S(=O)(=O)N(CC(=O)Nc2ccccc2Br)Cc2ccccc2)cc1,inactive
8,COc1ccc(-c2nc3scc(CCNS(=O)(=O)c4ccc(C)cc4)n3n2)cc1,inactive
9,CCCc1nc2ccc(Br)cc2c(=O)n1-c1ccc([N+](=O)[O-])c(C(F)(F)F)c1,inactive
10,CC(=O)Oc1ccc(C(=O)[C@H]2[C@H]3C(=O)N(c4ccc(C)cc4)C(=O)[C@H]3[C@@H]3C=CC=NN32)cc1,inactive
11,CC1(C(=O)O)CCCN1C(=O)c1cccc(F)c1 (configuration not stated),inactive
12,COc1ccc(NC(=O)c2sc3nc(N4CCOCC4)c4c(c3c2N)CC(C)(C)OC4)cc1,"inconclusive: 39.8 µM [inhibitor, partial curve]"
13,COc1ccc2c3c(ccc2c1)C(=O)/C(=C/O)CC3,"inconclusive: 31.6 µM [inhibitor, single point]"
14,COc1cccc(-c2cn3nc4c(nc3n2)CCCC4)c1,"inconclusive: 39.8 µM [inhibitor, partial curve, poor fit]"
15,O=C(c1cccc(S(=O)(=O)N2CCc3ccccc3C2)c1)N1CCN(c2ccccc2)CC1,inactive
16,S=C1NC(c2ccccc2)N2C(=S)NC(c3ccccc3)N12 (configuration not stated),"inconclusive: 25.1 µM [inhibitor, single point]"
17,CCn1c(-c2cc3ccccc3cc2O)n[nH]c1=S,"inconclusive: 15.8 µM [inhibitor, partial curve, poor fit]"
18,O=C1CCCc2cc(S(=O)(=O)NCC3CCC(C(=O)NCc4ccc(F)cc4)CC3)ccc2N1 (configuration not stated),inactive
19,O=C(CC(c1ccccc1)c1cc(Br)ccc1O)NCCCN1CCOCC1 (configuration not stated),"inconclusive: 44.7 µM [inhibitor, single point]"
20,O=C(CSc1nnnn1-c1cccc(C(=O)O)c1)NC(c1ccccc1)c1ccccc1,"inconclusive: 1.58 µM [inhibitor, full curve]"
21,COc1ccc(C(=O)Nn2cnc3scc(-c4cccs4)c3c2=O)c(O)c1,inactive
